Reference: PubChem BioAssay (NCI)
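Exposure lasted 48 hours, with cells grown in 96-well plates and compounds tested at five concentrations. GI50: concentration for 50% inhibition of growth. At the TGI there is no net growth.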 Bridge positions count the residues as written; N and C are the ends. Square brackets hold non-standard residues; d marks the D form. Peptide text beside a SMILES is read from it. * marks the point of attachment. Phe(3,5-F2) = N[C@@H](Cc1cc(F)cc(F)c1)C(=O)O; Pro(4R-Me) = C[C@H]1CN[C@H](C(=O)O)C1; aThr = C[C@H](O)[C@H](N)C(=O)O; Pip = O=C(O)[C@@H]1CCCCN1; X6 = CCC/C=C/C=C/C(=O)*

Tested on: NCI-H322M lung
Assay: NCI anticancer screen, dose series, 48 h

| Compound | GI50 | TGI |
| --- | --- | --- |
| CN1CCN(Cc2ccc(NC(=O)c3cncc(C#Cc4cnc5ccc(OCC6COC6)nn45)c3)cc2C(F)(F)F)CC1 | 234 nM | 933 nM |
| CCC/C=C/C=C/C(=O)N[C@@H](Cc1cc(F)cc(F)c1)C(=O)N[C@@H]1C(=O)N2CCC[C@H]2C(=O)N2CCCC[C@H]2C(=O)N[C@@H](C)C(=O)N2C[C@H](C)C[C@H]2C(=O)O[C@H]1C (X6-[Phe(3,5-F2)][aThr]P[Pip]A[Pro(4R-Me)]; ester 2-C) | 1980 nM | 49100 nM |
| C#CCN(C)CCCOc1ccc(NCc2ccc(C(=O)NO)cc2)cc1Cl | 2880 nM | 27800 nM |
